Consider 1 molecule from PubChem BioAssay AID2060345 (Molecular Pharmacology Branch, DTP, NCI, 2025).

Not every entry of the source has a single result; some have several. The list is limited to them. An entry can have further records. Values that stand side by side are repeated measurements (runs, samples, wells, individuals or studies). Marks such as (2×) say how often a value occurs here.

The test system of the experiment is MALME-3M multicell spheroids, viability. Kind of experiment: Anticancer human tumor MALME-3M cell line growth inhibition [TAK].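 Also: spheroids exposed to drugs for seven days before readout; 100% = DMSO vehicle control viability.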 Conditions: stronger effect = lower value. The text has this:
Combinatorial screen of targeted agents with TAK-243 and ipatasertib in multi-cell type tumor spheroids
A high-throughput screen of multi-cell type tumor spheroids was designed to identify active combinations of targeted small molecules and TAK-243 or ipatasertib. Complex spheroids include a stromal component modeled by human endothelial cells (HUVEC) and fibroblasts modeled by human mesenchymal stem cells (MSCs). The concentration ranges selected for each drug and investigational agent were based upon clinically achievable concentrations if the clinical Cmax of the agent was known.
Compounds. The drugs and investigational agents: TAK-243 (785004), ipatasertib (767898), everolimus (733504), selumetinib (741078), bortezomib (756655), trametinib (758246), ixazomib (758254), vemurafenib (761431), dabrafenib (764134), sapanisertib (764658), alpelisib (765974), and copanlisib (816437), were obtained from the National Cancer Institute (NCI) Developmental Therapeutics Program Chemical Repository. The FDA-approved anticancer drug set is available from the NCI Developmental Therapeutics Program. […] The stock solutions were prepared in dimethyl sulfoxide (DMSO, Sigma-Aldrich, St. Louis, MO, cat. D2650) at 800-fold the tested concentration and stored at -70 degrees C prior to their use. All drugs and investigational agents were tested over a range starting from a high concentration at or near the clinical Cmax and decreasing in half-log increments. If the clinical Cmax for an agent had not been determined, the highest concentration tested was 10 microM.
NCI60 Cell Culture. NCI60 cell lines were obtained from the NCI Developmental Therapeutics Program Tumor Repository. […] The optimal seeding densities for each of the cell lines at each time point assessed were determined prior to performing the concentration response studies. […]
For the pre-screen, cell seeding densities were determined from a titration spanning the range from 5,000 to 313 cells per well. […]

Turning to `CC(C)NCC(C(=O)N1CCN(c2ncnc3c2C(C)CC3O)CC1)c1ccc(Cl)cc1` (stereo not drawn), the viability, T/C (compound alone 0.3 µM) is 112, 117, 119 (2×), 107, 113, 123, 85.6, 118, 122%; the viability, T/C (compound alone 0.949 µM) was 96.8, 104 (2×), 107, 96.2, 96.9, 102, 108, 76.1, 103%; the viability, T/C (compound alone 3 µM) was 89.5, 83.7, 98.3, 91.4, 72.5, 86.6, 92.1, 65.8, 89, 90.9%.

By viability, T/C is commonly meant the ratio of treated to control.
